Data from PubChem BioAssay AID1479 (National Center for Advancing Translational Sciences (NCATS), 2009).
About 820 (0.29%) of roughly 280,000 compounds were called active. This list was built around the results that the source calls inconclusive (neither active nor inactive); the mix of calls is not that of the screen. Calls follow the shape of the dose curve; as a rule, active = well fitted curve in either direction with a large enough effect; inconclusive = small, poorly fitted or top-dose-only effect; inactive = flat fitted curve, though single readings scatter. No potency is given beside an inconclusive call; the fits are too rough. Some structures have more than one record in an assay (separate samples or runs), and their calls can disagree.

Assay: Total Fluorescence Counterscreen for Inhibitors of the Interaction of Thyroid Hormone Receptor and Steroid Receptor Coregulator 2
Settings: TRb/SRC2 Texas Red total fluorescence interference; series mostly up to 106 µM
How it was run: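 Flags fluorescent or light-absorbing compounds by total fluorescence, S + 2P, at 555 nm excitation and 632 nm emission. Mixture: 20 nM Texas Red SRC2 peptide, 0.6 uM human TRb LBD, 1 uM T3, 5% DMSO; compound exposure 5 h at ambient temperature.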
Potency is read from the fitted curve at half-maximal effect; tags tell the direction and shape of the fitted curve or compound fluorescence and quenching.

Row | Compound | Potency
1 | Cc1ccccc1OCc1ccc(-c2nc(C#N)c(NCc3cccnc3)o2)o1 | inconclusive [falling, partial curve, poor fit]
2 | Cn1c(C(=O)Nc2cccc(C(F)(F)F)c2)cc2c(=O)n3ccccc3nc21 | active: 44.7 µM [quencher]
3 | CCC1=C(c2ccc(C)cc2)S(=O)(=O)N=C1N1CCC(C(=O)Nc2ccccc2F)CC1 | inactive
4 | COC(=O)c1cc2sc(C)cc2n1Cc1cccc(OC)c1 | inconclusive [quencher, full curve]
5 | COc1cccc(CNCCNC(=O)c2nonc2N)c1 | inconclusive [falling, full curve, poor fit]
6 | CCOC(=O)CSc1nc(-c2ccc(C)cc2C)cc(-c2ccccc2)c1C#N | inconclusive [falling, full curve, poor fit]
7 | COc1ccccc1NC(=O)c1cc(=O)c2ccc(C)c(C)c2o1 | inconclusive [quencher, partial curve]
8 | COc1ccc(C2/C=C\CN(C(=O)C3CC3)C(Cc3ccccc3)C(=O)N2Cc2ccc(F)cc2)cc1 (stereo not given) | inactive
9 | CC(=O)c1cccc(NC(=O)c2oc3c(c2C)-c2nn(Cc4ccc(Cl)cc4)cc2CC3)c1 | inconclusive [falling, partial curve, poor fit]
10 | COc1ccc(CC(=O)Nc2sc3c(c2C(=O)Nc2ccccc2)CCCCC3)cc1 | inconclusive [quencher, full curve]
11 | CC1=C(C(=O)Nc2cccc(Cl)c2C)C2(CCCCCC2)OC1=O | inactive
12 | Nc1ccc2c3c(cccc13)C(=O)NC2=O | inconclusive [quencher, partial curve]
13 | O=C(NCCc1ccccc1)c1nc(-c2ccc(Cl)cc2)n2c1CCCCC2 | inconclusive [quencher, full curve]
14 | CCOC(=O)Nc1ccc(OCc2nnc3c4ccccc4c(C)nn23)cc1 | inactive
15 | CCC(C)NC(=O)C1CCN(S(=O)(=O)c2ccc3c(c2)CCCN3C(C)=O)CC1 (stereo not given) | inactive
16 | COc1cc2c(cc1OC)n(Cc1cccc(C(F)(F)F)c1)c(=O)n1nc(-c3ccccc3)nc21 | inconclusive [falling, partial curve, poor fit]
17 | CO/N=C\[C@@H](NS(=O)(=O)c1ccc(C)cc1)[C@H](C)/C=C\CC(=O)OC | inconclusive [quencher, partial curve]
18 | CC(=O)c1c(C(C)=O)c(C)n(-c2ccc(N)c(C)c2)c1C | active: 44.7 µM [fluorescent]
19 | CCCOc1ccc(N2C(=O)CC(N(CCc3ccc(OC)cc3)C(=O)/C=C/C(=O)O)C2=O)cc1 (stereo not given) | inconclusive [rising, single point]
20 | O=C1C(SCCO)=C(SCCO)C(=O)c2ccccc21 | active: 14.1 µM [quencher]

Row | Compound | Potency
21 | Cc1ccc(OCCSc2nc3ccc(NC(=O)c4cccs4)cc3s2)cc1 | inconclusive [falling, partial curve, poor fit]
22 | O=c1cc(-c2cccc(F)c2)[nH]c2ccc(Cl)cc12 | inconclusive [quencher, full curve]
23 | Cc1ccc(NC(=O)Cn2cc(C(=O)C3CC3)c3ccccc32)c(C)c1 | inconclusive [falling, partial curve, poor fit]
24 | CN1C(=CC=C2C=C(I)C(=O)C(I)=C2)C(C)(C)c2ccccc21 | inconclusive [rising, full curve, poor fit]
25 | Cc1ccc(S(=O)(=O)N2CCCCC2)cc1NC(=O)CCOc1ccccc1 | inconclusive [falling, full curve, poor fit]
26 | CCN1CCN(CCCNC(=O)c2cc3c(s2)-c2ccccc2OC3)CC1 | inconclusive [quencher, full curve]
27 | COc1cc(OC)cc(C(=O)Nc2cc(-c3nc4cc(Cl)ccc4o3)ccc2Cl)c1 | inconclusive [rising, single point]
28 | O=C(Nc1ccc(C(F)(F)F)cc1)C1(c2ccccc2)CC1 | inconclusive [falling, full curve, poor fit]
29 | C=CC1=C(C)C2=NC1=CC1=NC(=CC3=NC(=CC4=NC(=C2)C(C)=C4CCC(=O)O)C(CCC(=O)O)=C3C)C(C=C)=C1C.[Zn] | active: 28.2 µM [fluorescent]
30 | C=Cc1ccc(CN2C(=O)N(c3ccc(CC)cc3)S(=O)(=O)c3ccccc32)cc1 | inconclusive [falling, partial curve, poor fit]
31 | CC(C)c1ccc(OC(=O)c2cc(-c3ccc(Cl)cc3)on2)cc1 | inconclusive [falling, full curve, poor fit]
32 | Cc1ccc(Nc2nnc(-c3ccc(C)c(S(=O)(=O)N4CCOCC4)c3)c3ccccc23)c(C)c1 | active: 0.0141 µM [quencher]
33 | CCCn1c(=O)c2[nH]c(-c3ccc(OCC(=O)Nc4ccc(C#N)cc4)cc3)nc2n(CCC)c1=O | inconclusive [falling, full curve, poor fit]
34 | COc1ccc(NC(=O)CSc2nc(-c3ccco3)cc(C(F)(F)F)n2)cc1 | inconclusive [falling, full curve, poor fit]
35 | CCCCNC(=O)c1c(C)oc2ncn(CC(C)C)c(=O)c12 | inconclusive [falling, full curve, poor fit]
36 | CCOc1ccc(NC(=O)Cn2nc(-c3ccncc3)ccc2=O)cc1 | inactive
37 | O=C(c1cccc(Cl)c1)N1CCN(CCc2ccccn2)CC1 | inconclusive [falling, full curve, poor fit]
38 | CCc1ccc(NCc2cccn2-c2nnc(N3CCCCCC3)s2)cc1 | inconclusive [falling, full curve, poor fit]
39 | COc1ccc(-c2cn[nH]c2-c2ccc(OCc3ccccc3)cc2O)cc1OC | inactive
40 | O=C1NN(c2ccc(Cl)cc2)C(=O)/C1=C\c1ccc(-c2cccc(C(=O)O)c2)o1 | inactive
